Reference: the supplement of paper PMC11741623
This is one part of the list. Interaction screen of human proteins with wild-type SARS-CoV-2 proteins by split-DHFR complementation in yeast, 1 µg/mL methotrexate. Value = fitness of the pair (three or more lineages) minus that of the viral protein without a human partner, on a scale set by negative (0) and fused positive (1) controls, mean of up to three cultures; higher = more likely to interact. Active = false discovery rate below 0.05 (one-sided t-test) in at least one culture. Nearly all pairs are not hits, and differences among them are mostly noise (correlation between cultures about 0.3); most hits were seen in one culture only. Human sequences are the Swiss-Prot entries looked up by gene name; the clone may be another isoform. NSP2 values were corrected by the authors for a growth advantage. Listed are human proteins with a hit and a random twelfth of the others.

B1: ZNF843, Q8N446 (protein)
chain: MRSLPFALTVESVSARAPTCCSTGRFTQGRQPCKCKACGRGFTQSASLLQHWRVHSDWRETLSLSPVRQDLLWPLQPHQAPASPLGRSHSSAGVRQGFSGQLCCWLTKEHTLAEALRLSPVPAGFWGPVEADRPPANSHRRVCPFCCCSCGDSVNEKTSLSQRVLPHPGEKTCRGGSVESVSLAPSSVAPDSTSGLRPCGSPGSFLQHLPPSTLLPRPPFLYPGPPLSLQPLVPSGLPAVPAVPLGGLEVAQVPPATQPAAQQEGAMGPRSCASAGRDSREAVQAPGYPEPARKASQHRAAGPLGEARARLQRQCRAPPPPSNPHWRGALPVFPVWKASSRRSNLARH
B2: RSAD2, Q8WXG1 (protein)
chain: MWVLTPAAFAGKLLSVFRQPLSSLWRSLVPLFCWLRATFWLLATKRRKQQLVLRGPDETKEEEEDPPLPTTPTSVNYHFTRQCNYKCGFCFHTAKTSFVLPLEEAKRGLLLLKEAGMEKINFSGGEPFLQDRGEYLGKLVRFCKVELRLPSVSIVSNGSLIRERWFQNYGEYLDILAISCDSFDEEVNVLIGRGQGKKNHVENLQKLRRWCRDYRVAFKINSVINRFNVEEDMTEQIKALNPVRWKVFQCLLIEGENCGEDALREAERFVIGDEEFERFLERHKEVSCLVPESNQKMKDSYLILDEYMRFLNCRKGRKDPSKSILDVGVEEAIKFSGFDEKMFLKRGGKYIWSKADLKLDW
B3: ASTE1, Q2TB18 (protein)
chain: MGIRGLMSFVEDHSNEFFTDLKLRDTKIVIDGYALFHRLCFSSNLDLRYGGDYDSFADVVQKFFESLFACNICPYVVLDGGCDISDKKLTTLKDRAREKIQMAHSLSVGGSGYVCPLLIREVFIQVLIKLRVCFVQCFSEADRDIMTLANHWNCPVLSSDSDFCIFDLKTGFCPLNSFQWRNMNTIKGTQNYIPAKCFSLDAFCHHFSNMNKALLPLFAVLCGNDHVNLPIMETFLSKARLPLGATSSKGRRHHRILGLLNWLSHFANPTEALDNVLKYLPKKDRENVKELLCCSMEEYQQSQVKLQDFFQCGTYVCPDALNLGLPEWVLVALAKGQLSPFISDALVLRRTILPTQVENMQQPNAHRISQPIRQIIYGLLLNASPHLDKTSWNALPPQPLAFSEVERINKNIRTSIIDAVELAKDHSDLSRLTELSLRRRQMLLLETLKVKQTILEPIPTSLKLPIAVSCYWLQHTETKAKLHHLQSLLLTMLVGPLIAIINSPGKEELQEDGAKMLYAEFQRVKAQTRLGTRLDLDTAHIFCQWQSCLQMGMYLNQLLSTPLPEPDLTRLYSGSLVHGLCQQLLASTSVESLLSICPEAKQLYEYLFNATRSYAPAEIFLPKGRSNSKKKRQKKQNTSCSKNRGRTTAHTKCWYEGNNRFGLLMVENLEEHSEASNIE
B4: PDHA1, P08559 (protein)
chain: MRKMLAAVSRVLSGASQKPASRVLVASRNFANDATFEIKKCDLHRLEEGPPVTTVLTREDGLKYYRMMQTVRRMELKADQLYKQKIIRGFCHLCDGQEACCVGLEAGINPTDHLITAYRAHGFTFTRGLSVREILAELTGRKGGCAKGKGGSMHMYAKNFYGGNGIVGAQVPLGAGIALACKYNGKDEVCLTLYGDGAANQGQIFEAYNMAALWKLPCIFICENNRYGMGTSVERAAASTDYYKRGDFIPGLRVDGMDILCVREATRFAAAYCRSGKGPILMELQTYRYHGHSMSDPGVSYRTREEIQEVRSKSDPIMLLKDRMVNSNLASVEELKEIDVEVRKEIEDAAQFATADPEPPLEELGYHIYSSDPPFEVRGANQWIKFKSVS

Biological target: SARS-CoV-2 E
Test: yeast fitness gain over the viral ORF with no human partner (scaled fitness); higher = more likely to interact
Method: (§1)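 Split mouse DHFR complementation in pooled diploid yeast: human ORFeome clones carry one fragment and viral ORFs the other; barcoded lineages compete in 1 µg/mL methotrexate and fitness is read by barcode sequencing in up to three cultures.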

Row | Binder | yeast fitness gain
1 | B1 | inactive: -0.0191
2 | B2 | inactive: 0.00709
3 | B3 | inactive: 0.0397
4 | B4 | inactive: 0.0204

Biological target: SARS-CoV-2 M
Test: as above
Method: as §1

Row | Binder | yeast fitness gain
5 | B1 | inactive: 0.106
6 | B3 | inactive: 0.0996
7 | B4 | inactive: -0.00527

Biological target: SARS-CoV-2 N
Test: as above
Method: as §1

Row | Binder | yeast fitness gain
8 | B1 | inactive: 0.192
9 | B3 | inactive: -0.0472
10 | B4 | inactive: -0.0462

Biological target: SARS-CoV-2 NSP1
Test: as above
Method: as §1

Row | Binder | yeast fitness gain
11 | B1 | inactive: 0.0739
12 | B2 | inactive: 0.0793
13 | B3 | inactive: -0.0334

Biological target: SARS-CoV-2 NSP10
Test: as above
Method: as §1

Row | Binder | yeast fitness gain
14 | B1 | inactive: -0.0105
15 | B2 | inactive: 0.0394
16 | B3 | inactive: 0.0245
17 | B4 | inactive: 0.0725

Biological target: SARS-CoV-2 NSP12
Test: as above
Method: as §1

Row | Binder | yeast fitness gain
18 | B1 | inactive: 0.0538
19 | B2 | inactive: -0.0898
20 | B3 | inactive: 0.00067
21 | B4 | inactive: 0.00732

Biological target: SARS-CoV-2 NSP13
Test: as above
Method: as §1

Row | Binder | yeast fitness gain
22 | B1 | inactive: 0.00731
23 | B2 | inactive: -0.103
24 | B3 | inactive: 0.0517
25 | B4 | inactive: -0.0202

Biological target: SARS-CoV-2 NSP14
Test: as above
Method: as §1

Row | Binder | yeast fitness gain
26 | B1 | inactive: -0.00991
27 | B3 | inactive: 0.0607

Biological target: SARS-CoV-2 NSP16
Test: as above
Method: as §1

Row | Binder | yeast fitness gain
28 | B1 | inactive: 0.0288
29 | B2 | inactive: -0.0702
30 | B3 | inactive: -0.0176
31 | B4 | inactive: 0.0124

Biological target: SARS-CoV-2 NSP2
Test: as above
Method: as §1

Row | Binder | yeast fitness gain
32 | B1 | inactive: -0.0975
33 | B2 | inactive: 0.123
34 | B3 | inactive: -0.0951
35 | B4 | inactive: -0.101

Biological target: SARS-CoV-2 NSP5
Test: as above
Method: as §1

Row | Binder | yeast fitness gain
36 | B1 | inactive: 0.0525
37 | B2 | inactive: -0.0416
38 | B3 | inactive: 0.0108
39 | B4 | inactive: -0.015

Biological target: SARS-CoV-2 NSP6
Test: as above
Method: as §1

Row | Binder | yeast fitness gain
40 | B1 | inactive: 0.109
41 | B2 | inactive: -0.01
42 | B3 | inactive: -0.0369
43 | B4 | inactive: 0.00418

Biological target: SARS-CoV-2 NSP7
Test: as above
Method: as §1

Row | Binder | yeast fitness gain
44 | B1 | inactive: 0.0454
45 | B2 | inactive: 0.134
46 | B3 | inactive: -0.046
47 | B4 | inactive: 0.0694

Biological target: SARS-CoV-2 NSP8
Test: as above
Method: as §1

Row | Binder | yeast fitness gain
48 | B1 | inactive: -0.0644
49 | B2 | inactive: 0.019
50 | B3 | inactive: -0.00586
51 | B4 | inactive: -0.249

Biological target: SARS-CoV-2 ORF10
Test: as above
Method: as §1

Row | Binder | yeast fitness gain
52 | B1 | inactive: -0.0676
53 | B2 | inactive: -0.035
54 | B3 | inactive: 0.0131
55 | B4 | inactive: 0.00746

Biological target: SARS-CoV-2 ORF3B
Test: as above
Method: as §1

Row | Binder | yeast fitness gain
56 | B1 | inactive: -0.0047
57 | B2 | inactive: -0.00474
58 | B3 | inactive: 0.0141
59 | B4 | inactive: 0.0327

Biological target: SARS-CoV-2 ORF6
Test: as above
Method: as §1

Row | Binder | yeast fitness gain
60 | B1 | inactive: 0.0198
61 | B2 | inactive: -0.0267
62 | B3 | inactive: -0.0229
63 | B4 | inactive: 0.0391

Biological target: SARS-CoV-2 ORF7B
Test: as above
Method: as §1

Row | Binder | yeast fitness gain
64 | B1 | inactive: -0.0614
65 | B2 | inactive: -0.0694
66 | B3 | inactive: -0.013
67 | B4 | inactive: -0.0334

Biological target: SARS-CoV-2 ORF8
Test: as above
Method: as §1

Row | Binder | yeast fitness gain
68 | B1 | inactive: -0.0312
69 | B2 | inactive: -0.125
70 | B3 | inactive: 0.00581
71 | B4 | inactive: 0.0314

Biological target: SARS-CoV-2 ORF9B
Test: as above
Method: as §1

Row | Binder | yeast fitness gain
72 | B1 | inactive: -0.0835
73 | B2 | inactive: 0.0217
74 | B3 | inactive: 0.0547
75 | B4 | inactive: -0.0459

Biological target: SARS-CoV-2 ORF9Bwu (the 73-codon ORF)
Test: as above
Method: as §1

Row | Binder | yeast fitness gain
76 | B1 | inactive: -0.125
77 | B2 | inactive: 0.0878
78 | B4 | inactive: 0.0207

Biological target: SARS-CoV-2 S
Test: as above
Method: as §1

Row | Binder | yeast fitness gain
79 | B1 | inactive: -0.0913
80 | B2 | inactive: -0.0307
81 | B3 | inactive: 0.0205
82 | B4 | inactive: -0.0631

Biological target: SARS-CoV-2 ORF3A
Test: as above
Method: as §1

Row | Binder | yeast fitness gain
83 | B2 | inactive: -0.0411
84 | B3 | inactive: 0.00613
85 | B4 | inactive: -0.00571

Biological target: SARS-CoV-2 ORF7A
Test: as above
Method: as §1

Row | Binder | yeast fitness gain
86 | B2 | inactive: 0.0112
87 | B3 | inactive: -0.0267
88 | B4 | inactive: 0.0408

Biological target: SARS-CoV-2 NSP15
Test: as above
Method: as §1

Row | Binder | yeast fitness gain
89 | B3 | inactive: 0.0575
90 | B4 | inactive: 0.0343

Biological target: SARS-CoV-2 NSP4
Test: as above
Method: as §1

Row | Binder | yeast fitness gain
91 | B3 | inactive: -0.259

Biological target: SARS-CoV-2 NSP9
Test: as above
Method: as §1

Row | Binder | yeast fitness gain
92 | B4 | inactive: -0.0481
